We go through 44 sequences from the supplement of paper PMC11417369.

± gives the standard deviation of the averaged measurements. The list shows a part of the results.

This experiment deals with PfAP2-LT AP2 domain (GST-tagged). Kind of experiment: gcPBM binding intensity (ln(normalized median fluorescence intensity)); higher = stronger DNA binding. In a few lines:
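In this array assay, P. falciparum DNA-binding domains with a GST tag, expressed in E. coli, were applied for 1 h to primer-extended double-stranded 36-bp intergenic genomic probes and negative controls on an Agilent 4 × 180k array. Bound protein was visualised with Alexa488 anti-GST antibody at 488 nm. Binding intensity is the highest Masliner-normalised natural-log median intensity across replicate spots of either probe orientation.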
“TTTTATTCATTGAGCACACAAAATAAATTATCAAAA [CACACA_site3279]”: the “gcPBM binding intensity (ln)” value came out at 8.44 ± 0.49.

Regarding “TGATTTATCTATATTTTATAAGTTATTTATTTTTTT [CACACA_negctrl_site1603]”, the “gcPBM binding intensity (ln)” value came to 8.46 ± 0.4.

“AGTATATAATAATTTACACACAAAAAAATATCAGGA [CACACA_site3517]”: the “gcPBM binding intensity (ln)” value is 9.11 ± 0.5.

As to “ACCGTGGGAAGACACACACACACACCCACATATATA [CACACA_site333]”, the “gcPBM binding intensity (ln)” value was 10 ± 0.3.

In the case of “ATATAAATATTTATTAGTACACATTAGTGTAGTTTT [XGTACX_site4493]”, the “gcPBM binding intensity (ln)” value was 8.87 ± 0.42.

As to “CTATATTATTTTTCTTGTACGTAGGAAATATAGCTA [XGTACX_site6176]”, the “gcPBM binding intensity (ln)” value was 8.47 ± 0.4.

Turning to “TCTTGAAAAAGAATCAATCGGTCGACAAAAAAAAAA [CACACA_negctrl_site1099]”, the “gcPBM binding intensity (ln)” value stood at 8.88 ± 0.5.

As for “TTTTTTAATATTTATTAATTAAACTTTGTTTTTGTT [XGTACX_negctrl_site454]”, the “gcPBM binding intensity (ln)” value is 8.44 ± 0.7.

Consider “ATATTCTTGTTTAATACACACTGTAGTATTATAGAT [CACACA_site6341]”, for which the “gcPBM binding intensity (ln)” value was 8.98 ± 0.32.

Take “GACAAATAATAAAAGGTGCATTATACTTAACAAAAA [GTGCAC_site9624]”: the “gcPBM binding intensity (ln)” value stood at 8.83 ± 0.48.

For the sequence “AAAAAACACTTAAGGTGTACCTTTTAATATAAGTAT [XGTACX_site2397]”, the “gcPBM binding intensity (ln)” value was 8.73 ± 0.47.

As for “AAAAATGTATGTATGGTGCAGTATTCATATCATTTT [GTGCAC_site9458]”, the “gcPBM binding intensity (ln)” value worked out at 8.81 ± 0.4.

On to “AAAATGAACAAACACACACACATATATATATATATA [CACACA_site2403]”, for which the “gcPBM binding intensity (ln)” value was 10.27 ± 0.057.

For the sequence “TTATTGTGTAAGATGATTTTCTTCGTCACTTTGAAA [CACACA_negctrl_site1814]”, the “gcPBM binding intensity (ln)” value was determined as 8.48 ± 0.51.

Consider “GTAAAAAAAAAAAAAAGTACATTATACATATATTTA [XGTACX_site5447]”, for which the “gcPBM binding intensity (ln)” value came to 8.47 ± 0.54.

For the sequence “TGTGTATATAAATAATGTACATATATATTTTTTTAT [XGTACX_site7341]”, the “gcPBM binding intensity (ln)” value stood at 8.62 ± 0.45.

In the case of “AACCATAACTCATATGCACACATAAATATTACATAT [CACACA_site9273]”, the “gcPBM binding intensity (ln)” value came to 9.23 ± 0.48.

On to “AAAGTATAAATAAATACACACATATATATATATATA [CACACA_site2892]”, for which the “gcPBM binding intensity (ln)” value is 9.78 ± 0.21.

As for “TGGAGGATAGTTCACAGTACCCAGTAACTCTACGGA [XGTACX_site4930]”, the “gcPBM binding intensity (ln)” value turned out to be 8.69 ± 0.47.

“TACATTCGGAGTAAAAAAAAATTTATACAATTACTT [XGTACX_negctrl_site29]”: the “gcPBM binding intensity (ln)” value amounted to 8.5 ± 0.51.

In the case of “GGAAAAATATAATATGCATGTTATTATTTTTTTATA [TGCATGCA_site836]”, the “gcPBM binding intensity (ln)” value was determined as 8.49 ± 0.45.

Regarding ACATGTGAATTTTAGGTGCACTTGTAATTTAACATT, the “gcPBM binding intensity (ln)” value turned out to be 8.86 ± 0.42.

For the sequence “ATATATATATAATGTTGTACATAAATATTATATTTA [XGTACX_site5225]”, the “gcPBM binding intensity (ln)” value stood at 8.55 ± 0.36.

For “TTTTTATTTATTCTCTTTGTATTATAAAATAAAAGC [XGTACX_negctrl_site253]”, the “gcPBM binding intensity (ln)” value came out at 8.38 ± 0.45.

With “ATATATATATTATATAGTACAGAGTATACTATTATA [XGTACX_site1893]”, the “gcPBM binding intensity (ln)” value is 8.71 ± 0.35.

For the sequence “AACGATATATGTACTACACACATTATGTCATCCTAT [CACACA_site2464]”, the “gcPBM binding intensity (ln)” value is 9.37 ± 0.45.

On to “CAAAAAGGAATGTATGCACACAATTGATTTTAACTC [CACACA_site1468]”, for which the “gcPBM binding intensity (ln)” value was determined as 9.16 ± 0.41.

For “GATCTAAAAACAAGGTGTACAAGAAAAAAAAAAAAA [XGTACX_site7577]”, the “gcPBM binding intensity (ln)” value amounted to 8.69 ± 0.7.

On to “ACAAAAGGGGAATACACACACATATATATATATATA [CACACA_site2215]”, for which the “gcPBM binding intensity (ln)” value stood at 10.33 ± 0.071.

In the case of “TATGTATATACATAAACATGCAAAAACAATATCTTA [TGCATGCA_site950]”, the “gcPBM binding intensity (ln)” value worked out at 8.83 ± 0.33.

For “TATTTATTTATTTAATGTACAAAAGAACAAGAATTT [XGTACX_site2248]”, the “gcPBM binding intensity (ln)” value was found to be 8.35 ± 0.38.

As for “TCTTAATCGTATTATTACTATAATTATATAATATTT [CACACA_negctrl_site1594]”, the “gcPBM binding intensity (ln)” value came to 8.56 ± 0.5.

Turning to “TTCTTCTGTTTTATTACACACCATTTTGTGTATACA [CACACA_site7059]”, the “gcPBM binding intensity (ln)” value came to 9.25 ± 0.4.

On to “ATAATGAAAAGAAAGGGTACAAAAAAAAAAAAAAAT [XGTACX_site3350]”, for which the “gcPBM binding intensity (ln)” value came to 8.98 ± 0.6.

In the case of “TTCTTTTATGATAATTGTACCCTTTTTAAAAAGAAA [XGTACX_site7815]”, the “gcPBM binding intensity (ln)” value turned out to be 8.16 ± 0.43.

For the sequence “AACTGATTATTTTTTTGTACATATATAATAATATAT [XGTACX_site5953]”, the “gcPBM binding intensity (ln)” value came out at 8.81 ± 0.45.

Take “CATAAATAATATATTTGTACGAATAAAATTTGTTCA [XGTACX_site3445]”: the “gcPBM binding intensity (ln)” value is 8.46 ± 0.37.

On to “TAAAACAATATAAAATGTACAGAATTTTTTTTTCTT [XGTACX_site6820]”, for which the “gcPBM binding intensity (ln)” value amounted to 8.45 ± 0.41.

For the sequence “TTTTTTTTCAATGGCACACATTTTAGATTTATGCTT [CACACA_site4735]”, the “gcPBM binding intensity (ln)” value is 8.94 ± 0.57.

As to “TATAATATAAAAATGAGTACATAGATAATAATATTT [XGTACX_site2376]”, the “gcPBM binding intensity (ln)” value turned out to be 8.81 ± 0.42.

For “TTTTTTTTTTATTAATGTACAAGATATATAATGTTA [XGTACX_site4809]”, the “gcPBM binding intensity (ln)” value came to 8.38 ± 0.42.

On to “ATCTTAATTTTTGAAGGTACACACTAATATATTAAA [XGTACX_site2292]”, for which the “gcPBM binding intensity (ln)” value came out at 8.57 ± 0.41.

For the sequence “ATATTTTATTATATAGGTACACATAATTTCATGTAA [XGTACX_site415]”, the “gcPBM binding intensity (ln)” value stood at 8.6 ± 0.42.

As to “TATATAGTAAATATTTGTACATAATAAAATATATGT [XGTACX_site7873]”, the “gcPBM binding intensity (ln)” value was found to be 8.91 ± 0.49.
